Experimental data from the supplement of paper PMC4996465.

Key:
KB3-1 [1] = assay: log AC50 of viability decrease (48 h) (log10 M); higher = less potent
Description: (§1)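 Eleven-dose screen of the NCATS MIPE 3 library on cells without co-treatment; CellTiter-Glo after 48 h. AC50 from the curve fit; only inhibitory curves of the better fit classes are listed.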

Nalm-6 [2] = assay: as above
Description: as §1

KB3-1 [3] = assay: viability (% of DMSO control); higher = more viable cells
Description: (§2)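 Eleven-dose screen of the NCATS MIPE 3 library on cells without co-treatment; CellTiter-Glo after 48 h, as % of DMSO wells.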

Nalm-6 [4] = assay: as above
Description: as §2

| SMILES | log AC50 of viability decrease (KB3-1 [1]) | log AC50 of viability decrease (Nalm-6 [2]; run: 1) | log AC50 of viability decrease (Nalm-6 [2]; run: 2) | viability (KB3-1 [3]; 0.00078 µM) [%] | viability (KB3-1 [3]; 0.00234 µM) [%] | viability (KB3-1 [3]; 0.00702 µM) [%] | viability (KB3-1 [3]; 0.0211 µM) [%] | viability (KB3-1 [3]; 0.0632 µM) [%] | viability (KB3-1 [3]; 0.19 µM) [%] | viability (KB3-1 [3]; 0.569 µM) [%] | viability (KB3-1 [3]; 1.71 µM) [%] | viability (KB3-1 [3]; 5.12 µM) [%] | viability (KB3-1 [3]; 15.4 µM) [%] | viability (KB3-1 [3]; 46.1 µM) [%] | viability (Nalm-6 [4]; run: 1, 0.00078 µM) [%] | viability (Nalm-6 [4]; run: 1, 0.00234 µM) [%] | viability (Nalm-6 [4]; run: 1, 0.00702 µM) [%] | viability (Nalm-6 [4]; run: 1, 0.0211 µM) [%] | viability (Nalm-6 [4]; run: 1, 0.0632 µM) [%] | viability (Nalm-6 [4]; run: 1, 0.19 µM) [%] | viability (Nalm-6 [4]; run: 1, 0.569 µM) [%] | viability (Nalm-6 [4]; run: 1, 1.71 µM) [%] | viability (Nalm-6 [4]; run: 1, 5.12 µM) [%] | viability (Nalm-6 [4]; run: 1, 15.4 µM) [%] | viability (Nalm-6 [4]; run: 1, 46.1 µM) [%] | viability (Nalm-6 [4]; run: 2, 0.00078 µM) [%] | viability (Nalm-6 [4]; run: 2, 0.00234 µM) [%] | viability (Nalm-6 [4]; run: 2, 0.00702 µM) [%] | viability (Nalm-6 [4]; run: 2, 0.0211 µM) [%] | viability (Nalm-6 [4]; run: 2, 0.0632 µM) [%] | viability (Nalm-6 [4]; run: 2, 0.19 µM) [%] | viability (Nalm-6 [4]; run: 2, 0.569 µM) [%] | viability (Nalm-6 [4]; run: 2, 1.71 µM) [%] | viability (Nalm-6 [4]; run: 2, 5.12 µM) [%] | viability (Nalm-6 [4]; run: 2, 15.4 µM) [%] | viability (Nalm-6 [4]; run: 2, 46.1 µM) [%] |
| --- | --- | --- | --- | --- | --- | --- | --- | --- | --- | --- | --- | --- | --- | --- | --- | --- | --- | --- | --- | --- | --- | --- | --- | --- | --- | --- | --- | --- | --- | --- | --- | --- | --- | --- | --- | --- |
| Cc1cc(/C=c2/sc3nc4ccccc4n3c2=O)c(C)n1-c1ccccc1 [ITX3] | -5.03 | -4.78 | -4.73 | 103 | 106 | 107 | 103 | 105 | 109 | 101 | 103 | 98.9 | 77.2 | 72.2 | 112 | 120 | 128 | 123 | 129 | 134 | 125 | 119 | 105 | 92.5 | 49.9 | 107 | 111 | 103 | 111 | 106 | 107 | 105 | 102 | 94.8 | 85.3 | 47.2 |
| CCN1CCN(Cc2ccc(-c3cc4c(N[C@H](C)c5ccccc5)ncnc4[nH]3)cc2)CC1 [AEE-788] | -4.63 | -4.78 | -4.78 | 99.7 | 98.8 | 102 | 101 | 101 | 96.5 | 90.9 | 93 | 95.5 | 83.5 | 2.42 | 95.2 | 96.6 | 95.7 | 105 | 101 | 99.2 | 93.7 | 83.4 | 69.5 | 48.6 | 1.03 | 92.5 | 104 | 101 | 97.3 | 99 | 98.3 | 97.6 | 90 | 83.4 | 47.4 | 1.45 |
| OC[C@H](Cc1ccccc1)Nc1nc(Oc2ccc3c(c2)CCC3)nc2c1ncn2Cc1ccc(-c2ccccc2)cc1 [QS11] | -4.88 | – | -4.98 | 90.9 | 95.9 | 99 | 97.7 | 95.3 | 99.6 | 96.1 | 85.2 | 83.9 | 71.2 | 53.8 | 65.5 | 89.4 | 104 | 99.5 | 111 | 107 | 112 | 82.7 | 66.9 | 47.7 | 47.3 | 98.1 | 102 | 98 | 104 | 102 | 101 | 112 | 87.6 | 80 | 52.5 | 32.9 |
| CC(C)C[C@H](NC(=O)[C@H](CCc1ccccc1)NC(=O)CN1CCOCC1)C(=O)N[C@@H](Cc1ccccc1)C(=O)N[C@@H](CC(C)C)C(=O)[C@@]1(C)CO1 [Carfilzomib] | -7.38 | – | -8.83 | 96.9 | 95.1 | 92.8 | 72.1 | 38 | 6.99 | 6.67 | 6.94 | 7.78 | 6.72 | 5.3 | 4.01 | 3.38 | 4.46 | 4.7 | 4.85 | 5.3 | 5.68 | 6.03 | 5.53 | 5.22 | 2.45 | 76.7 | 14 | 4.9 | 4.79 | 4.72 | 4.54 | 4.57 | 4.18 | 4.16 | 3.52 | 2.15 |
| Cc1cc(Nc2cc(N3CCN(C)CC3)nc(/C=C/c3ccccc3)n2)n[nH]1 | -6.08 | -6.08 | -5.88 | 90.1 | 93.5 | 96.3 | 91 | 90.8 | 85.2 | 81.4 | 47.2 | 53.6 | 54.2 | 29.7 | 99.5 | 98.6 | 105 | 101 | 101 | 98.1 | 67.9 | 36.8 | 29 | 29.3 | 0.99 | 101 | 106 | 110 | 110 | 110 | 96 | 77.8 | 49.7 | 34.4 | 39.1 | 2.34 |
| CN1\C=N/C2=CC=C(NC3=CC(=CC=C3C)NC(=O)C4=CC(=CC=C4)C(C)(C)C#N)C=C2C1=O [AZ-628] | -4.68 | -4.73 | -4.63 | 102 | 104 | 111 | 100 | 96.9 | 97.6 | 96.9 | 93.5 | 84 | 85.4 | 38 | 107 | 114 | 113 | 101 | 99.9 | 105 | 95.5 | 96 | 84.2 | 72 | 6.55 | 107 | 107 | 101 | 108 | 98.6 | 102 | 101 | 98 | 87.7 | 82.1 | 3.75 |
| O=C(OC)[C@]12CC[C@@]3(C)[C@]4(C)CC[C@H]5[C@@](C)(C)C(=O)C(=C[C@]5(C)C4=CC(=O)[C@@H]3[C@@H]2C[C@](C)(C)CC1)C#N [Bardoxolone methyl] | -6.08 | -6.33 | -6.28 | 99.9 | 101 | 105 | 103 | 103 | 95.6 | 68.6 | 25.7 | 5.55 | 1.31 | -0.702 | 115 | 106 | 111 | 114 | 68.8 | 103 | 43.7 | 4.61 | 1.93 | 0.135 | -0.46 | 113 | 114 | 114 | 112 | 111 | 103 | 54.5 | 4.6 | 2.58 | 0.897 | 0.0452 |
| O=C1[C@H](Cc2ccc(O)cc2)N2C(=O)CCN(C(=O)NCc3ccccc3)[C@H]2CN1Cc1cccc2ccccc12 [ICG-001] | -5.63 | -6.08 | -5.18 | 101 | 97.4 | 99.9 | 101 | 95.1 | 103 | 99.4 | 68.6 | 49.3 | 41.8 | 32.9 | 115 | 107 | 113 | 114 | 117 | 92.8 | 74.9 | 44.3 | 36.3 | 29.4 | 12.3 | 109 | 113 | 109 | 114 | 106 | 102 | 97.8 | 66.5 | 57 | 50.2 | 7.99 |
| COC1=CC=C2[C@H]3CC[C@]4(C)[C@H](CC[C@H]4[C@@H]3CCC2=C1)NCCCCCCN5C(=O)\C=C/C5=O | -4.68 | -4.73 | -4.68 | 105 | 103 | 103 | 108 | 107 | 108 | 103 | 106 | 93.5 | 81.1 | 7.3 | 108 | 109 | 118 | 120 | 115 | 114 | 105 | 105 | 86.9 | 78.5 | 6.93 | 105 | 99.2 | 102 | 103 | 104 | 98.4 | 93 | 91.2 | 86.8 | 77.2 | 1.61 |
| COC(=O)C\1=C(C)\N\C(=C(/[C@@H]1C2=CC(=CC=C2)[N+]([O-])=O)C(=O)OCCCN3CCC(CC3)(C4=CC=CC=C4)C5=CC=CC=C5)C [(S)-(+)-Niguldipine] | -4.58 | -4.73 | -4.78 | 97.5 | 101 | 97.5 | 104 | 99.8 | 100 | 94.5 | 95.7 | 90.2 | 86.9 | 0.761 | 103 | 101 | 100 | 109 | 109 | 116 | 114 | 105 | 93.6 | 72.4 | 1.66 | 94.4 | 105 | 101 | 107 | 105 | 112 | 103 | 90.8 | 78.8 | 46.9 | 2.32 |
| CC(C)c1ccccc1Cc1cc(C(=O)Nc2ccc(S(=O)(=O)c3ccccc3C(C)(C)C)cc2)c(O)c(O)c1O [TW-37] | -5.43 | -5.63 | -6.13 | 101 | 100 | 101 | 96.1 | 97.8 | 96.5 | 94.2 | 98.5 | 51.6 | 38.8 | 35.8 | 108 | 112 | 106 | 105 | 114 | 104 | 94.2 | 66.6 | 39.4 | 27.4 | 18.2 | 107 | 107 | 105 | 105 | 108 | 92.5 | 62.5 | 33.5 | 6.26 | 5.38 | 4.28 |
| NC(=O)Nc1cc(-c2ccc(CN3CCOCC3)c(F)c2)sc1C(=O)N[C@H]1CCCNC1 | -6.68 | -7.43 | -7.38 | 98.9 | 101 | 98.1 | 96.4 | 76.8 | 58.4 | 24.2 | 11.2 | 7.87 | 6.88 | 3.83 | 104 | 104 | 106 | 81.7 | 29.3 | 12.2 | 7.71 | 5.84 | 3.61 | 1.24 | -1.14 | 102 | 95.7 | 97.9 | 81 | 30.3 | 7.31 | 4.21 | 3.76 | 3.48 | 1.02 | -1.29 |
| COc1ncc(-c2ccc3nccc(-c4ccnnc4)c3c2)cc1NS(=O)(=O)c1ccc(F)cc1F | -6.63 | -5.48 | -6.38 | 83.2 | 81.1 | 71.3 | 59.5 | 52.3 | 45.6 | 47.2 | 45.8 | 47.1 | 43.1 | 8.09 | 62.3 | 55.6 | 48.4 | 47.6 | 45.6 | 40.6 | 40 | 26.4 | 20.3 | 13.2 | 1.57 | 72.1 | 64.2 | 53.6 | 52 | 52.3 | 38.4 | 35.7 | 28.1 | 18.4 | 14.7 | 1.17 |
| CC(C)c1ccc(Cn2ccc3c4c(N)nc(NC5CC5)nc4ccc32)cc1 | -6.03 | -5.43 | -5.48 | 102 | 103 | 106 | 102 | 108 | 105 | 89.4 | 26.3 | 38.5 | 5.44 | 1.17 | 112 | 116 | 120 | 114 | 117 | 114 | 113 | 95.7 | 36.9 | 3.77 | 0.406 | 111 | 105 | 111 | 107 | 101 | 114 | 101 | 90.1 | 24.6 | 2.91 | 1.33 |

Viability of KB3-1 and Nalm-6 cells after 48 h of drug alone (CellTiter-Glo), 11 doses over about 4.5 log units. % of DMSO wells, lower = more cell loss; AC50 from the fitted curve, lower = more potent. No active / inactive call. Nalm-6 was screened in two runs. AC50 is listed only for well-fitted inhibitory curves. KB3-1 is a HeLa-derived carcinoma line, Nalm-6 a B-cell precursor leukaemia line.
